Measured values reported in PubChem BioAssay (NCI).
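Tested at 5 concentrations; 48 h exposure; 96-well plates; endpoints linearly interpolated, else capped at highest concentration. GI50 marks 50% less growth. At the TGI there is no net growth.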

System: NCI-H322M lung
Experiment: inhibition of tumour cell growth, NCI panel, 48 h

SMILES | GI50 [µM] | TGI [µM]
CC1=C2C(=C[C@@](C)(CO)[C@@H]2O)/C(=N\N)[C@](C)(O)C12CC2 | 2.32 | 6.52
CN1CCN(c2ccc(Nc3nc(NCCNC(=O)c4ccc(C(F)(F)F)cc4)c4sccc4n3)cc2)CC1 | 12.1 | 24.5
CC1(C)CC[C@]2(C(=O)Nc3ccc(F)cc3)CC[C@]3(C)C(=CCC4[C@@]5(C)C[C@@H](O)[C@H](O)[C@@](C)(CO)C5CC[C@]43C)C2C1 (stereo partly specified) | 20.1 | 56.6
